About 2,200 (0.71%) of roughly 310,000 compounds showed an effect of 50% or more. The effect is printed as a negative number. The list shows a part of the results.
molecular target: human ether-à-go-go-related gene (hERG) potassium channel (human, UniProt Q12809); test: primary screen, population patch clamp on CHO cells stably expressing hERG
Sequence (Q12809 whole entry, looked up): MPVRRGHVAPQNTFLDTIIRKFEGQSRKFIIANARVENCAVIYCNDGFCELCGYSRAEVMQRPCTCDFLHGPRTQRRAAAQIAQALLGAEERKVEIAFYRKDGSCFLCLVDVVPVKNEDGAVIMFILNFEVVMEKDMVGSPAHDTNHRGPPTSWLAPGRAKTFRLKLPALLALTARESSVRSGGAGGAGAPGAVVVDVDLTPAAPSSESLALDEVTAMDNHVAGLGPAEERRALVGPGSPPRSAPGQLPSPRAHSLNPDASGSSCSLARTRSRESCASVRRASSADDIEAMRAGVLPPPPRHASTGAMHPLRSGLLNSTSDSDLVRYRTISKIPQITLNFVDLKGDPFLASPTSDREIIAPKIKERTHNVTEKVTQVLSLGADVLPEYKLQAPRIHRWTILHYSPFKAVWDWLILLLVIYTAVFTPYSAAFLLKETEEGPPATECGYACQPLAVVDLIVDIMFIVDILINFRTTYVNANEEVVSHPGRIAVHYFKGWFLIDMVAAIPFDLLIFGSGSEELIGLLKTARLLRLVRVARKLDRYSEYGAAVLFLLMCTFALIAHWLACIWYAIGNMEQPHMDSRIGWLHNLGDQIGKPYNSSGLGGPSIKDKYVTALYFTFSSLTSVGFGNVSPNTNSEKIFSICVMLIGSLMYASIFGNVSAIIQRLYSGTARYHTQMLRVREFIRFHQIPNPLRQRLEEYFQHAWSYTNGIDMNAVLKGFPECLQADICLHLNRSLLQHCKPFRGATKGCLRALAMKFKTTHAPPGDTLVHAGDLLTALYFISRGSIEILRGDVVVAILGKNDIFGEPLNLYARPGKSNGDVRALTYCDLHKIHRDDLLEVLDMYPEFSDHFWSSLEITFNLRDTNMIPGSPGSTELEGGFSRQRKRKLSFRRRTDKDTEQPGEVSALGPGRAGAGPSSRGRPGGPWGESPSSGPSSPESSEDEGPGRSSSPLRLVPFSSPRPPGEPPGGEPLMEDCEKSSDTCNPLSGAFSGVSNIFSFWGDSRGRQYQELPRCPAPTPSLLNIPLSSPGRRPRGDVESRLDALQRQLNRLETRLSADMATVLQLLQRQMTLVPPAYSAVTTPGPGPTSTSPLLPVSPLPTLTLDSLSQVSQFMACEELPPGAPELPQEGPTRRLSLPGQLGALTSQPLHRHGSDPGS

| SMILES | hERG current change (%, negative = inhibition) at 1uM |
| --- | --- |
| Cc1cc(NS(=O)(=O)c2ccc(NC(=O)CN3C(=O)c4ccccc4C3=O)cc2)nc(C)n1 | -2.39% |
| CC(=O)/C(=C\N(C)C)Sc1ccc(C)cc1 | 27.2% |
| CCOC(=O)CN1C(=O)C(O)(CC(=O)c2cccc(OC)c2)c2ccccc21 (centres unmarked) | 14.8% |
| Cc1ccc(-c2noc(COc3ccc4c(c3)OCO4)n2)cc1 | 1.72% |
| COc1ccc(CNC(=O)CCNS(=O)(=O)c2ccc(NC(C)=O)cc2)cc1OC | 14.2% |
| COc1ccc2cc3c(N)nn(C(=O)Cc4ccc(Cl)cc4)c3nc2c1 | 12.1% |
| Cc1cccc(OCCCC(=O)Nc2ccc(S(=O)(=O)Nc3ncccn3)cc2)c1C | 15.4% |
| COC(=O)CNc1cccc(C(F)(F)F)c1 | 2.99% |
| COC(=O)c1c(C(=O)OC)c(-c2cccc(C)c2)n2c1CS(=O)C2 (centres unmarked) | 12.6% |
| CCOC(=O)C1=c2/c(=C/c3ccncc3)c(N)c(C(=O)OC)n2C(=O)C(c2ccncc2)S1 (centres unmarked) | 5.01% |
| CC(C)CN1CCNC(=O)C1CC(=O)NCCCN1CCCc2ccccc21 (centres unmarked) | 18.9% |
| CCOC(=O)CSc1nn(C)c(=S)s1 | 4.31% |
| Cc1ccc2[nH]cc(CCCN3C(=O)c4ccccc4C3=O)c2c1 | -5.28% |
| COc1ccc(CN(CC2CCC(C(=O)O)CC2)C(=S)Nc2cc(Cl)ccc2OC)cc1 (centres unmarked) | 11.2% |
| COc1cccc(CC2CC(=O)N(CCc3ccc4c(c3)OCO4)C2=O)c1 (centres unmarked) | 10.7% |
| O=C(Nc1ccc(N2CCN(C(=O)c3ccco3)CC2)c(Cl)c1)c1cc2ccccc2o1 | -1.49% |
| Cc1cc(C)c(OCCCCNCc2ccccc2)c(Cl)c1.O=C(O)C(=O)O | -23.4% |
| COc1ccc(C(=O)COC(=O)/C=C/c2ccc(S(=O)(=O)Nc3cccc(S(N)(=O)=O)c3)cc2)cc1 | 0.812% |
| O=C1OCCC1Sc1nnc(-c2ccc(Br)cc2)o1 (centres unmarked) | 15% |

| SMILES | hERG current change (%, negative = inhibition) at 1uM |
| --- | --- |
| Cc1c(C(=O)NCc2ccccc2)oc2ccc(S(=O)(=O)N3CCCC3)cc12 | -3.31% |
| COc1ccc(-c2cc(-c3ccccc3O)[nH]n2)cc1OC | 12.2% |
| COc1ccc(NC(=S)Nc2ccccc2C(F)(F)F)cc1 | 9.35% |
| O=C(CCSc1ccc(Cl)cc1)Nc1cccnc1 | 5.73% |
| COc1ccc(C(=O)N2CCCN(C)CC2)cc1S(=O)(=O)N(C)Cc1ccccc1 | 7.13% |
| CC1(C)CC(=O)c2c(nn(-c3ccccc3)c2-c2ccncc2)C1 | 10.2% |
| COc1ccccc1-n1c(C)nnc1SCC(=O)Nc1cccc(C(C)=O)c1 | 4.31% |
| COc1cc(C2NC(=S)NC(C)=C2C(=O)c2ccccc2)ccc1O (centres unmarked) | 11.2% |
| CCC(=O)Nc1ccc2c(c1)nc(CN1CCCCC1)n2C | 7.61% |
| O=CN1CCc2scc[n+]2-c2ccccc21.[Br-] | 24.4% |
| CSc1nc2c(c(=O)n1C)SC(C)C2 (centres unmarked) | 0.117% |
| Cc1ccc(OCC(=O)Nc2cccc(S(=O)(=O)N3CCCCCC3)c2)cc1C | 11.8% |
| CN(n1cnc2ccccc2c1=O)S(C)(=O)=O | 13.4% |
| COc1cc(/C=C\C(=O)NCc2ccc3c(c2)cc(C)n3C)cc(OC)c1OC | 12.2% |
| COc1ccc(-c2noc(CN(C(=O)c3ccc(OC(C)=O)cc3)C(C)C)n2)cc1OC | 9.67% |
| COc1cc2c(cc1OC)CN(CC(=O)Nc1ccccc1SC)CC2 | 2.61% |
| CCCCn1c(N)c(N(CCC(C)C)C(=O)C2=COCCO2)c(=O)[nH]c1=O | 5.25% |
| O=C(NCc1cccs1)c1cc(-c2ccc(O)cc2)on1 | 11.7% |
| COc1ccc(CCNC(=O)CNC(=O)c2ccco2)cc1 | 16.3% |

| SMILES | hERG current change (%, negative = inhibition) at 1uM |
| --- | --- |
| OCc1ccccc1NC(=S)Nc1cccnc1 | -5.08% |
| C/C(CC(=O)Nc1cccc(Cl)c1Cl)=N\NC(=O)C(=O)NC1CCCCC1 | 4.78% |
| Cc1ccc(S(=O)(=O)N2CCC(C(=O)NCCCN3CCOCC3)CC2)cc1 | 1.42% |
| O=C(CSc1nc2ccccc2[nH]1)Nc1ccc(N2CCOCC2)cc1 | 9.23% |
| CCC(C)NC(=O)Cn1ccc2cc(S(=O)(=O)N3CCCCCC3)ccc21 (centres unmarked) | 10.3% |
| COc1ccc(CC2S/C(=C(\C#N)C(=O)NCc3ccco3)N(c3ccc(C)cc3)C2=O)cc1 (centres unmarked) | 7.56% |
| COc1cc(OC)c(C2=NOC(C(=O)NCc3cccnc3)C2)cc1Cl (centres unmarked) | 16.2% |
| CN1CCN(C(=O)C2CCC(=O)N(Cc3cccc(C(F)(F)F)c3)C2)CC1 (centres unmarked) | 6.99% |
| CCOC(=O)c1cnc(Nc2nc3ccccc3o2)nc1CSc1nnc(C)s1 | 11.2% |
| COC(=O)c1ccccc1Nc1ccccc1 | 15.9% |
| CCOC(=O)c1ccc(NC(=O)c2sc3nc(N4CCOCC4)c4c(c3c2N)CCCC4)cc1 | 7.44% |
| O=C(CNS(=O)(=O)c1cccs1)N1CCC2(CC1)OCCO2 | 14.7% |
| CCC(=O)N(Cc1ccccc1)c1ccccn1 | 12.1% |
| CCCCN1C(=O)C(=O)N(CC(=O)Nc2ccccc2C(=O)OCC)C1=O | 8.3% |
| CC1(C)CC(=O)C2=C(C1)N(N1CCOCC1)C(N)=C(C#N)C2c1cccnc1 (centres unmarked) | 21.1% |
| CS(=O)(=O)N1CCC(C(=O)N2CCN(c3cccc(Cl)c3)CC2)CC1 | 3.4% |
| Cc1ccc(OCCC(=O)Nc2ccc(S(=O)(=O)Nc3cc(C)nc(C)n3)cc2)cc1 | 7.12% |
| Cc1cc(NS(=O)(=O)c2ccc(NC(=S)NC(=O)c3ccc(F)cc3)cc2)no1 | 0.776% |

Source: paper PMC4336329 (PLoS ONE, 2015)
